# Where “and” joins values, the source holds several entries; their conditions need not be identical. Equal values may be shown once. In all, about 270,000 compounds went through this assay and about 5,800 (2.1%) were called active. This list was built around the results that the source calls inconclusive (neither active nor inactive); the mix of calls is not that of the screen. Calls follow the shape of the dose curve; as a rule, active = well fitted inhibition curve with a large enough effect; inconclusive = small, poorly fitted or top-dose-only effect; inactive = flat fitted curve, though single readings scatter. Potencies beside an inconclusive call are fits to weak or partial responses and may not hold up.
# Molecular target: Microtubule-associated protein tau (Homo sapiens) (UniProt P10636)
# Assay: qHTS for Inhibitors of Tau Fibril Formation, Thioflavin T Binding; also: nearly all actives have a fitted effect of over 55% in size
# Conditions: recombinant tau K18 P301L (four-repeat tau fragment), heparin-induced fibrillization, ThT fluorescence; series mostly up to 57.4 µM; activity, negative = inhibition: at the top concentration
# Method in brief: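 Heparin-induced (20 uM) aggregation of recombinant human K18 P301L tau, 15 uM unlabeled with 0.24 uM labeled, pH 7 acetate buffer, 6 hr at 37 C with compound. Fibrils quantified by 30 uM ThT fluorescence after 1 hr ambient incubation.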
# % is scaled to controls: 0 for no effect and ±100 for the full control effect; potency is read from the fitted curve at half-maximal effect; tags tell the direction and shape of the fitted curve.
# UniProt P10636, sequence (P10636 whole entry, looked up): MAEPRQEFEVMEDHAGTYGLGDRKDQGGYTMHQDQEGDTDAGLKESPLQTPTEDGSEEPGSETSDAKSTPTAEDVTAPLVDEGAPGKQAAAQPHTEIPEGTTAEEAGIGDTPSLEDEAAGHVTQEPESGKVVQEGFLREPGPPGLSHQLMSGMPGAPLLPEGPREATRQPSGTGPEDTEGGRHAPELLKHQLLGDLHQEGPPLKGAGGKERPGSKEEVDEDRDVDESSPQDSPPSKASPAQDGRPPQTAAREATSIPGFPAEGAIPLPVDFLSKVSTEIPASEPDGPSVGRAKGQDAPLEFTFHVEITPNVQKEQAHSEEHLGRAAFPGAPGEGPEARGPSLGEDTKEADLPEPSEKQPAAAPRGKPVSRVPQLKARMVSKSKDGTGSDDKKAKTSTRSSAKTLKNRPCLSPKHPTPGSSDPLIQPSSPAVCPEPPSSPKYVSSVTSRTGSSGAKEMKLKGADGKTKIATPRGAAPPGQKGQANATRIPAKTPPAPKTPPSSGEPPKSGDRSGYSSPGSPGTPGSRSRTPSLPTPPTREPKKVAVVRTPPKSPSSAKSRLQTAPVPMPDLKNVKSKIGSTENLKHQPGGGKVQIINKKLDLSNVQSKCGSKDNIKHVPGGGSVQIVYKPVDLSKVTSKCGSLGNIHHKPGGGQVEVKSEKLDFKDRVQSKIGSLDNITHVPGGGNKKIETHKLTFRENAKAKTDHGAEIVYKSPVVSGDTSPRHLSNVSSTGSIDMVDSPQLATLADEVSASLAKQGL
Compound,"activity, negative = inhibition",Potency
CC(=O)c1cccc(NS(=O)(=O)c2cc(-c3onc(C)c3C)ccc2C)c1,inactive: -4.34%,–
CCOC(=O)c1cc2cc([N+](=O)[O-])cc(OC)c2oc1=O,–,"inconclusive: 14.1 µM [inhibitor, partial curve]"
Cc1ccc(CN(Cc2cc3cc4c(cc3[nH]c2=O)OCCO4)Cc2nnnn2Cc2ccco2)cc1,–,active: 35.5 µM
COc1ccc2cc3cc(C(=O)Nc4cc(C)c(Cl)cc4OC)oc3nc2c1,inactive: 0.354%,–
COc1ccc2nc(N3C(=O)CC(Cc4cc(C)cc(C)c4)C3=O)sc2c1 (configuration not stated),–,"inconclusive: 10 µM [inhibitor, partial curve]"
Cc1cccc(NC(=O)CN2C(=O)N/C(=C/c3ccc(C)o3)C2=O)c1,–,"inconclusive: 25.1 µM [inhibitor, single point]"
Cc1ccn2c(c1)nc(=S)n2C(=O)c1ccco1,–,"inconclusive: 10 µM [inhibitor, partial curve]"
CCOC(=O)c1c(NC(=O)c2cc(OCC)c(OCC)c(OCC)c2)sc2c1CCCCC2,–,"inconclusive: 17.8 µM [inhibitor, partial curve]"
CC(C)(C)OC(=O)C(Cl)(C(=O)OC(C)(C)C)c1ccc2nnnn2n1,–,"inconclusive: 39.8 µM [inhibitor, single point]"
Cc1ccc(NC(=O)Cn2c(=S)[nH]c3ccccc32)cc1,–,"inconclusive: 15.8 µM [inhibitor, partial curve, poor fit]"
O=C(OCC#CCSc1nc2ccccc2o1)c1cc2ccccc2o1,–,"inconclusive: 3.16 µM [inhibitor, full curve]"
N#C/C(=C\c1ccc(Sc2ccc(Cl)cc2)o1)c1nc2ccccc2[nH]1,–,"inconclusive: 8.91 µM [inhibitor, partial curve]"
CCc1ccc(C2c3c(oc4ccc(F)cc4c3=O)C(=O)N2CCc2ccc(OC)cc2)cc1 (configuration not stated),inactive: -3.15%,–
COCCn1nnnc1C(c1ccccc1OC)N1CCN(c2ccccc2F)CC1 (configuration not stated),inactive: -9.06%,–
Cc1cccc(N2CCN(C(=O)c3cnn(-c4ccccc4Cl)c3C3CCN(C(=O)OC(C)(C)C)CC3)CC2C)c1 (configuration not stated),–,"inconclusive: 44.7 µM [inhibitor, single point]"
Cc1ccc(-n2nc3ccc(N)cc3n2)cc1,–,"inconclusive: 14.1 µM [inhibitor, partial curve]"
N#Cc1ccccc1CN1C(=O)S/C(=C/c2cccn2-c2ccc(C(=O)O)cc2)C1=O,inactive: -17%,–
O=C1CN(CC(=O)N2CCOCC2)c2ccccc2O1,–,"inconclusive: 35.5 µM [inhibitor, single point]"
Cc1cccc(OCc2nc(CC(=O)Nc3ccc(C)cc3C)cs2)c1,inactive: -11.2%,–
CCOC(=O)C1=C(c2ccccc2)N(C)C(=O)NC1c1ccc(OC(F)F)c(OC)c1 (configuration not stated),–,"inconclusive: 22.4 µM [inhibitor, partial curve, poor fit]"
CCN(c1ccccc1)S(=O)(=O)c1nnc(NC(=O)c2ccccc2)s1,–,active: 15.8 µM
COc1cccc(NC(=S)N2CCN(c3ccccn3)CC2)c1,inactive: -11.4%,–
CCCCCCCCCCCCCCC[C@H](O)[C@@H](N)CO,–,inactive
O=C(NCCCN1CCCC1)C1CCN(C(=O)c2cc3sccc3n2Cc2ccc(F)cc2)CC1,inactive: -17%,–

Compound,"activity, negative = inhibition",Potency
CSc1cccc(NC(=O)C2CCN(S(=O)(=O)c3ccc4c(c3)CCCN4C(=O)C3CCC3)CC2)c1,inactive: 13.2%,–
COc1ccc(N(CC(C)C)S(=O)(=O)c2nnc(NC(=O)c3cccs3)s2)cc1,inactive: -10.9%,–
Cc1cc(NN)nc(NS(=O)(=O)c2ccc(Cl)cc2)n1,inactive: -4.83%,–
CCOC(=O)c1ccc(NC(=O)C(=O)NCc2ccc(/C=C(/C#N)C(=O)NCCOC)o2)cc1,–,"inconclusive: 20 µM [inhibitor, partial curve]"
O=C(NCCc1ccc(Cl)cc1)Nc1ccc(Cl)cc1,inactive: -1.83%,–
CCN1CCCc2cc(CN(CCN3CCOCC3)C(=S)Nc3ccccc3OC)ccc21,–,"inconclusive: 12.6 µM [inhibitor, partial curve]"
Cc1ccccc1Nc1nc(-c2sc(NC(=O)c3ccccc3)nc2C)cs1,–,"inconclusive: 4.47 µM [inhibitor, full curve]"
COc1ccc(CNc2cc(C)ccc2C)c(OC)c1OC,–,"inconclusive: 28.2 µM [inhibitor, single point]"
C=CCn1c(=O)/c(=C/c2cc(OC)c(OC)c(OC)c2)s/c1=C(/C#N)c1nc2ccccc2n1C,–,"inconclusive: 3.55 µM [inhibitor, full curve]"
O=C1CC(=O)N(CCc2ccccc2)C(=O)N1CCc1ccccc1,–,active: 28.2 µM
CCOC(=O)c1cnc2c(Cl)cc(Cl)cc2c1Nc1cc(C(=O)O)ccc1C,–,"inconclusive: 3.16 µM [inhibitor, single point]"
COc1ccc(-n2c(C)cc(C(=O)COC(=O)Cc3n[nH]c(=O)c4ccccc34)c2C)cc1,–,"inconclusive: 25.1 µM [inhibitor, single point]"
Cc1cccc2nc(Cn3c(=O)n(CCCC(=O)NCc4ccco4)c(=O)c4ccccc43)cc(=O)n12,inactive: -15.1%,–
COc1ccc(S(=O)(=O)N2CCN(Cc3ccc4c(c3)OCO4)CC2)cc1C,inactive: -9.56%,–
Fc1ccccc1NC(=S)NCc1ccc2c(c1)OCO2,inactive: 8.27%,–
CCN(C(=O)c1ccc(Cl)c([N+](=O)[O-])c1)c1ccccc1,inactive: -3.88%,–
CC1(C)CC(=O)C(CC2=C(O)CC(C)(C)CC2=O)C(=O)C1,–,active: 14.1 µM
COc1nc(Nc2ccc(OC)c(Cl)c2)nc(OC)n1,–,"inconclusive: 28.2 µM [inhibitor, partial curve]"
COc1ccc(C(=O)Nc2ccc(N3CCN(C(=O)c4ccccc4)CC3)cc2)cc1[N+](=O)[O-],–,active: 15.8 µM
CCC(=O)NC(=S)Nc1ccc(-c2nc3ccc(C)cc3s2)cc1,–,"inconclusive: 0.794 µM [inhibitor, full curve]"
COc1cc([N+](=O)[O-])cc(/C=N/NC(=O)CC#N)c1O,–,"inconclusive: 14.1 µM [inhibitor, partial curve]"
O=C(Nc1ccc2nc(SCC(=O)N3CCc4ccccc43)sc2c1)c1cccc(F)c1,inactive: 4.89%,–
CCCCC/C=C\C/C=C\C/C=C\C=C\[C@@H](O)CCCC(=O)O,–,"inactive and inconclusive: 126 nM [inhibitor, full curve, poor fit]"
